Experimental data: paper PMC11342095
These are yes or no findings as the source states them, for the method shown. Some binding calls cover weakened binding; strength is not graded here. Where a sequence is shown, tags or fusion partners need not be part of it.

T1: Sei1 fused to the Gal4 activation domain or binding domain (budding yeast) (UniProt Q06058)
T1 sequence: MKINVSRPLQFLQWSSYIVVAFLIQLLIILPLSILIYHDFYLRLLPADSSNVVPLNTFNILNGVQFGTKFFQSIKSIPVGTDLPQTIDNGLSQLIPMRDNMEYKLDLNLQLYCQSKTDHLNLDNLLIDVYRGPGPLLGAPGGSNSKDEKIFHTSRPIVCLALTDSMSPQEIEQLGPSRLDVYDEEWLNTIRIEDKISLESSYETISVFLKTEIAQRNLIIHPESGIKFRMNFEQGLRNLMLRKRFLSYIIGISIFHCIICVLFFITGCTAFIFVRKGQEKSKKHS

T2: Ldb16 fused to the Gal4 activation domain or binding domain (budding yeast) (UniProt P25587)
T2 sequence: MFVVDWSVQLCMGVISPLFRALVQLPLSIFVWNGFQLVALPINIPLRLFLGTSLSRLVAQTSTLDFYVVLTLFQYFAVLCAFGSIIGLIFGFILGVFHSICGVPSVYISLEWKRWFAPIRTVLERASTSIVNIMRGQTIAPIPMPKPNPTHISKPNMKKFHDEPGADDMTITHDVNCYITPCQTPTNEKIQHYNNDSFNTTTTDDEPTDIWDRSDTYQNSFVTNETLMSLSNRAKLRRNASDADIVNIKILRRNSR

T3: Ldo16 fused to the Gal4 activation domain or binding domain (budding yeast) (UniProt P40219)
T3 sequence: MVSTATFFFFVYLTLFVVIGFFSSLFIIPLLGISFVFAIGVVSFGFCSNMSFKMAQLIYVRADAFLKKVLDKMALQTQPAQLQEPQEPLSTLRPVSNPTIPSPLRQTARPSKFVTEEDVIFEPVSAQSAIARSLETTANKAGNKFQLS

T4: Pln1 fused to the Gal4 activation domain or binding domain (budding yeast) (UniProt P36139)
T4 sequence: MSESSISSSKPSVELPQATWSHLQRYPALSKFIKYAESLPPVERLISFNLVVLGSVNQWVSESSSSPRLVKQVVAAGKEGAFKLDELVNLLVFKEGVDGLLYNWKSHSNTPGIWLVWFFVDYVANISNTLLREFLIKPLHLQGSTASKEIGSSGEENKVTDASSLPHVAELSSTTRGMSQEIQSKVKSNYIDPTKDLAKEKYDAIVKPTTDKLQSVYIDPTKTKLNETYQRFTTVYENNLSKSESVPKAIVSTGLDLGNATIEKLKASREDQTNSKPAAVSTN

T5: Tgl4 fused to the Gal4 activation domain or binding domain (budding yeast) (UniProt P36165)
T5 sequence: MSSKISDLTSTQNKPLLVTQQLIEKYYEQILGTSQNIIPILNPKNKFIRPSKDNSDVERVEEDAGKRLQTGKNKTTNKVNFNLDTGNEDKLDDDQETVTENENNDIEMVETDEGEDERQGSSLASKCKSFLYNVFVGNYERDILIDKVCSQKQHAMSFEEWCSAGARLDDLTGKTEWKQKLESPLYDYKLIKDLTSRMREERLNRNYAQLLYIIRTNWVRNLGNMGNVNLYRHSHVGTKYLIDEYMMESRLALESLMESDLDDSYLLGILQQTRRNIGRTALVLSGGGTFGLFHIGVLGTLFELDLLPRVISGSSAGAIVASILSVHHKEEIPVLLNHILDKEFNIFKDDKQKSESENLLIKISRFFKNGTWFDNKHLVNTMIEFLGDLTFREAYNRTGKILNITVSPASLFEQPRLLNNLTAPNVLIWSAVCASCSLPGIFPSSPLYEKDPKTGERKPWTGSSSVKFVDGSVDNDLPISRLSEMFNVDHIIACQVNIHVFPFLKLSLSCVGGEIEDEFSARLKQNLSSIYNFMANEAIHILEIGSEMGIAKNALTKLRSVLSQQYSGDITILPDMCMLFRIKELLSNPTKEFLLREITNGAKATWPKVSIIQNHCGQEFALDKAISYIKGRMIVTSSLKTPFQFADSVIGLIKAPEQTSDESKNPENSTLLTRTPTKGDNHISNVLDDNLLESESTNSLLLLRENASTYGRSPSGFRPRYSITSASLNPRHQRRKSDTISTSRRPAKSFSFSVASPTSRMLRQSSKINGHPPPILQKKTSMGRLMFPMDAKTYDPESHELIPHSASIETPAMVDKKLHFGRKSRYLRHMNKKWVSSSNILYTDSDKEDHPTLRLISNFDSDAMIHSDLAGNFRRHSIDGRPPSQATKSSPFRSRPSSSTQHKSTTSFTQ

T6: Sei1 fused to the Gal4 activation domain or binding domain (budding yeast), Q06058
T6 chain: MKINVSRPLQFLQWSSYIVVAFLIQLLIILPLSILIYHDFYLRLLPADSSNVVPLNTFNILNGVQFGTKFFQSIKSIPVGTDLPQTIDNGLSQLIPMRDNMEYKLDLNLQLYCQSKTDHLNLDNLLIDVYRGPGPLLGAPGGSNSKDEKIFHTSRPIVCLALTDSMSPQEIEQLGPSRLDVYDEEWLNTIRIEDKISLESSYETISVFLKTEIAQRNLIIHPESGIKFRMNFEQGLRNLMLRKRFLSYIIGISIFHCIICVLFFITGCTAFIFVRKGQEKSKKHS


Assays:
Experiment in all cases: two-hybrid; PJ69-4a with pGAD- and pGBD-plasmids; growth on SC-LEU-TRP-HIS plates with 1 mM 3-AT, 30 °C, 3 to 8 days
[1] = target: T1, Sei1 fused to the Gal4 activation domain or binding domain (budding yeast)
[2] = target: T2, Ldb16 fused to the Gal4 activation domain or binding domain (budding yeast)
[3] = target: T3, Ldo16 fused to the Gal4 activation domain or binding domain (budding yeast)
[4] = target: T4, Pln1 fused to the Gal4 activation domain or binding domain (budding yeast)
[5] = target: T5, Tgl4 fused to the Gal4 activation domain or binding domain (budding yeast)
[6] = target: T6, Sei1 fused to the Gal4 activation …; details: remark: other sources report otherwise

| Binder | binding [1] | binding [2] | further results |
| --- | --- | --- | --- |
| Ldo16 fused to the Gal4 activation domain or binding domain, P40219 1-148 (protein) MVSTATFFFFVYLTLFVVIGFFSSLFIIPLLGISFVFAIGVVSFGFCSNMSFKMAQLIYVRADAFLKKVLDKMALQTQPAQLQEPQEPLSTLRPVSNPTIPSPLRQTARPSKFVTEEDVIFEPVSAQSAIARSLETTANKAGNKFQLS | – | – | binding [6]: no binding |
| Pln1 fused to the Gal4 activation domain or binding domain (protein, UniProt P36139 1-283) MSESSISSSKPSVELPQATWSHLQRYPALSKFIKYAESLPPVERLISFNLVVLGSVNQWVSESSSSPRLVKQVVAAGKEGAFKLDELVNLLVFKEGVDGLLYNWKSHSNTPGIWLVWFFVDYVANISNTLLREFLIKPLHLQGSTASKEIGSSGEENKVTDASSLPHVAELSSTTRGMSQEIQSKVKSNYIDPTKDLAKEKYDAIVKPTTDKLQSVYIDPTKTKLNETYQRFTTVYENNLSKSESVPKAIVSTGLDLGNATIEKLKASREDQTNSKPAAVSTN | – | no binding | – |

More lines, main results first:

| binding [1] | binding [2] | Binder | further results |
| --- | --- | --- | --- |
| no binding | – | Tgl4 fused to the Gal4 activation domain or binding domain (protein, UniProt P36165 1-910) MSSKISDLTSTQNKPLLVTQQLIEKYYEQILGTSQNIIPILNPKNKFIRPSKDNSDVERVEEDAGKRLQTGKNKTTNKVNFNLDTGNEDKLDDDQETVTENENNDIEMVETDEGEDERQGSSLASKCKSFLYNVFVGNYERDILIDKVCSQKQHAMSFEEWCSAGARLDDLTGKTEWKQKLESPLYDYKLIKDLTSRMREERLNRNYAQLLYIIRTNWVRNLGNMGNVNLYRHSHVGTKYLIDEYMMESRLALESLMESDLDDSYLLGILQQTRRNIGRTALVLSGGGTFGLFHIGVLGTLFELDLLPRVISGSSAGAIVASILSVHHKEEIPVLLNHILDKEFNIFKDDKQKSESENLLIKISRFFKNGTWFDNKHLVNTMIEFLGDLTFREAYNRTGKILNITVSPASLFEQPRLLNNLTAPNVLIWSAVCASCSLPGIFPSSPLYEKDPKTGERKPWTGSSSVKFVDGSVDNDLPISRLSEMFNVDHIIACQVNIHVFPFLKLSLSCVGGEIEDEFSARLKQNLSSIYNFMANEAIHILEIGSEMGIAKNALTKLRSVLSQQYSGDITILPDMCMLFRIKELLSNPTKEFLLREITNGAKATWPKVSIIQNHCGQEFALDKAISYIKGRMIVTSSLKTPFQFADSVIGLIKAPEQTSDESKNPENSTLLTRTPTKGDNHISNVLDDNLLESESTNSLLLLRENASTYGRSPSGFRPRYSITSASLNPRHQRRKSDTISTSRRPAKSFSFSVASPTSRMLRQSSKINGHPPPILQKKTSMGRLMFPMDAKTYDPESHELIPHSASIETPAMVDKKLHFGRKSRYLRHMNKKWVSSSNILYTDSDKEDHPTLRLISNFDSDAMIHSDLAGNFRRHSIDGRPPSQATKSSPFRSRPSSSTQHKSTTSFTQ | – |
| binds weakly | binds | Ldo45 fused to the Gal4 activation domain or binding domain (protein, UniProt P40218 1-412) MAARNRRKNNKKKSLLVTSAAQEKNATYVLVAEELHKKTIDLNMGTETPLTENHENPIPAKEFKHQQKLEPIDEHDDGEDELSIKFKSMTKSSGPITEAEVQKLLLSYAFTSAAIQEDENEKESRHYPIKPPSPSASSLSAYFQSFVEKCKQVFYNFSLQTVEKLNALQNSLYEVFWIIFIYLNYWFPNVGDYVSNTFGQQDSIIIRISLSKSHFRALREKSSQKVQQAVKNIYFCFQEKPYLTAFKVSFAIGLVIPCSLLFLIMVSTATFFFFVYLTLFVVIGFFSSLFIIPLLGISFVFAIGVVSFGFCSNMSFKMAQLIYVRADAFLKKVLDKMALQTQPAQLQEPQEPLSTLRPVSNPTIPSPLRQTARPSKFVTEEDVIFEPVSAQSAIARSLETTANKAGNKFQLS | binding [3]: binds; binding [4]: binds; binding [5]: binds |
